Results taken from PMC12376573.
Results are given in words; binding and its absence hold for the method and conditions named. Binding seen in cells or lysates may run through a third protein. Some binding calls cover weakened binding; strength is not graded here. For part of these data: Where a sequence is shown, tags or fusion partners need not be part of it.

Chains of the proteins cited; added tags and fusions are not shown. Lines headed by an entry give the natural chain unless they say otherwise; changes in a name come on top. Residues count along the entry.
UniProt Q14145: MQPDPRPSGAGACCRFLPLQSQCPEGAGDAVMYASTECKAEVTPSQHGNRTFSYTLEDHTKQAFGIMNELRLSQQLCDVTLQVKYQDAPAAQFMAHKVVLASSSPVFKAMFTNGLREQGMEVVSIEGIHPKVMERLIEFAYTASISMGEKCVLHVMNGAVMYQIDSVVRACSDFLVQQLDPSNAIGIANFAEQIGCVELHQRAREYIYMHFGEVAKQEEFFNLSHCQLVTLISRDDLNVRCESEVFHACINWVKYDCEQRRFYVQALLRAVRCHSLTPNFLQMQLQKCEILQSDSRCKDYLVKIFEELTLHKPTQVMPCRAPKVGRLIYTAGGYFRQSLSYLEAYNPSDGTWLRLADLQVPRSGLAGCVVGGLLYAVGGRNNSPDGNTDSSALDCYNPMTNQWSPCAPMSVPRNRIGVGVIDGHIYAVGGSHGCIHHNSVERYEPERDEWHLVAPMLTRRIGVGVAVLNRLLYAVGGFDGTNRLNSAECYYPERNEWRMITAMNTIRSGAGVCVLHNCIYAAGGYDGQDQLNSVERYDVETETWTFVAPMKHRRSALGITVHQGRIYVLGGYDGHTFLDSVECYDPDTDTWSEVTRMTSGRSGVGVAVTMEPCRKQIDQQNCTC
His‐KEAP1 truncation, amino acids 1–609: residues 1-609 of Q14145
His‐KEAP1 truncation, amino acids 1–321: residues 1-321 of Q14145
His‐KEAP1 truncation, amino acids 1–179: residues 1-179 of Q14145
His‐KEAP1 truncation, amino acids 1–66: residues 1-66 of Q14145
His‐KEAP1 truncation, amino acids 322–624: residues 322-624 of Q14145
UniProt Q99755: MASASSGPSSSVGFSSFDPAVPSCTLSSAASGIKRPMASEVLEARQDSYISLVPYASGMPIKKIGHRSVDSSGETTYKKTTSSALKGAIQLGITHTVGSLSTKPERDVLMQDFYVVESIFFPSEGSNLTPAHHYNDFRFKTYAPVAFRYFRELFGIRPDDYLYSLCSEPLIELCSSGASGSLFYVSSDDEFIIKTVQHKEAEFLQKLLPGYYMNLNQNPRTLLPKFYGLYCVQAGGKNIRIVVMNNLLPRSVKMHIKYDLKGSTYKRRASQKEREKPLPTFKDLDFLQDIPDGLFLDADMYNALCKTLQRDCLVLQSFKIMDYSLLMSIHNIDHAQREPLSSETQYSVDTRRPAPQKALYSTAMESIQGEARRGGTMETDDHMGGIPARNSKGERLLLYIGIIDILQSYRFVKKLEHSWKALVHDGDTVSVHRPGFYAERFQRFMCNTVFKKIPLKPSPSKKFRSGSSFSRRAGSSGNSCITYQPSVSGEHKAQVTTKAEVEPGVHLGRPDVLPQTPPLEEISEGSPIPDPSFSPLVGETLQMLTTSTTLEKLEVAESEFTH

Assays:
[1] = biological target: His‐KEAP1 truncation, amino acids 1–609 (UniProt Q14145); assay: co-IP; HEK293T cells co‐transfected with tagged plasmids; lysate, antibodies overnight at 4 °C, Protein A/G magnetic beads
[2] = biological target: His‐KEAP1 truncation, amino acids 1–66 (UniProt Q14145); assay: as above
[3] = biological target: His‐KEAP1 truncation, amino acids 322–624 (UniProt Q14145); assay: as above
[4] = biological target: His‐KEAP1 (wild type, full length) (UniProt Q14145); assay: as above
[5] = biological target: His‐KEAP1 truncation, amino acids 1–321 (UniProt Q14145); assay: as above
[6] = biological target: His‐KEAP1 truncation, amino acids 1–179 (UniProt Q14145); assay: as above
[7] = biological target: T1, Myc‐NRF2 (UniProt Q16236); assay: as above
T1 sequence: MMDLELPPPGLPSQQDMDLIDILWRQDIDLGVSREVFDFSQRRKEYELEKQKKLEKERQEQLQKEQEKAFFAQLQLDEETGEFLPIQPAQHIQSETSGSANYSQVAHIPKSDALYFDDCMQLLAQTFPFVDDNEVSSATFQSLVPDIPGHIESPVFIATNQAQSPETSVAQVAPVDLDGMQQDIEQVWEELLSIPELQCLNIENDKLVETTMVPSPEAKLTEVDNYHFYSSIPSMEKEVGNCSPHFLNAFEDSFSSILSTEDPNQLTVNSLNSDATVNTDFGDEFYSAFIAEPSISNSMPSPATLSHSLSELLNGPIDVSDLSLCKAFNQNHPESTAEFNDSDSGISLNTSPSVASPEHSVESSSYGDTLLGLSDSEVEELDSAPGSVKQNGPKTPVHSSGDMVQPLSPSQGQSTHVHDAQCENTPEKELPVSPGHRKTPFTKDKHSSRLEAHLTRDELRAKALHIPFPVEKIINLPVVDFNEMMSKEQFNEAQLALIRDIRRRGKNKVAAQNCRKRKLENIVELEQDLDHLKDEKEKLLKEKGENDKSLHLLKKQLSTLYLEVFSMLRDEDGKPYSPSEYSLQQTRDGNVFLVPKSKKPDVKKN

[8] = biological target: Kelch‐like ECH‐associated protein 1 (KEAP1), endogenous (human (endogenous in PLC/PRF/5)) (UniProt Q14145); assay: co-IP; endogenous proteins in PLC/PRF/5 cell lysate; IgG as control; Protein A/G magnetic beads, overnight at 4 °C

binding [1] | binding [2] | binding [3] | binding [4] | binding [5] | binding [6] | binding [7] | binding [8] | Substance
binds | no binding | binds | binds | no binding | no binding | no binding | – | Flag‐PIP5K1A (full‐length Flag‐tagged PIP5K1A) (from UniProt Q99755 1-562)
– | – | – | binds | – | – | – | – | Flag‐PIP5K1A truncation, amino acids 81–449 (phosphatidylinositol‐phosphate kinase domain, PIPK domain) (from UniProt Q99755 81-449) (domain or fragment)
– | – | – | – | – | – | – | binds | phosphatidylinositol 4‐phosphate 5‐kinase 1 alpha (PIP5K1A), endogenous (from UniProt Q99755 1-562)
